{"source": "paper PMC12136788", "binders": {"B1": {"name": "chr22:16590879:16592550:-|CDS|ENSG00000198445|control|control|control (ssRNA)", "RNA": "GGGAGUUCUACAGUCCGACGAUCCCAAGGAUUUCGAGCAGUGGCUGAGGUGGUGCUACAGCUCGUGACUGUAGAUGAAAUCGUAGUGGCCAAGAAAAGUCCCACACAUCAGGAGAUCUGGAAUCCUGACUCUAAGAAGACAAACAACAGAGGAUUGAGCAUCA"}, "B2": {"name": "chr12:48653210:48654175:-|three_prime_utr|ENSG00000139620|control|control|control (ssRNA)", "RNA": "GGGAGUUCUACAGUCCGACGAUCGCACCAUUGUCUCAGAGUGGAUUGGCUACUGCAAAUGGGAAGCCAGAACCCACUUCUAUUAGUUGAUAGUUUGGGGAACCAUUUUACUUUGGUGGAUUUAAAUUUCUCGUUCUUCAAAGACAACAGAGGAUUGAGCAUCA"}, "B3": {"name": "ENSG00000136451:be:win_901|CDS|ENSG00000136451|bound_else_gene|NA|bound_elsewhere_windowed (ssRNA)", "RNA": "GGGAGUUCUACAGUCCGACGAUCAUCACCAGCCACUUAAAGACUCAUGGGCAGAGCCAAAGUAUCAACUGUAAUACAUGUAAACAAGGCAUCAGUAAAACAUGCAUGAGUGAAGAGACCAGUAACCAAAAGCAGCAGCAGCAGCAACAGAGGAUUGAGCAUCA"}, "B4": {"name": "ENSG00000163697:stop:overlap|stop_codon|ENSG00000163697|stop_codon|NA|stop_codon (ssRNA)", "RNA": "GGGAGUUCUACAGUCCGACGAUCGAGGGGUCUUAUCCCUCAUUGACACUUUGAAACAGAAACGCCCUGUCACCGAAAUGCCAUAGCUGCACAUGCAAAAGGACUCGGCUAUUUACCUGAAGAUUGACUAGCUACACUAAAGAACAACAGAGGAUUGAGCAUCA"}, "B5": {"name": "chr6:52279506:52279615:-|CDS|ENSG00000112118|unk|FALSE|unique (ssRNA)", "RNA": "GGGAGUUCUACAGUCCGACGAUCUGAGUGUGGCAUUUUUAAGACAGGACGGAGAUCACUCUGUCCCUCUGUGUGCCUUUUUCUAGGAUGAGGAGAACAAUCCCCUUGAGACAGAAUAUGGCCUUUCUGUCUACAAGGAUCACCCAACAGAGGAUUGAGCAUCA"}, "B6": {"name": "chr11:61403655:61403707:-|3pUTR|ENSG00000149532|msi1_unk|total|mutant (ssRNA)", "RNA": "GGGAGUUCUACAGUCCGACGAUCUGAAGUAACCAGGAGGAAUGGGGAAAGAAGCAAGUUGGGCAGGAUAUGGCCUACUUCCACCGGCUUUUCUUUUUUCAGGUUUGAUGUAAGCAUGGGCUUACAUCCCCCAGGUACAUACUUCAACAGAGGAUUGAGCAUCA"}, "B7": {"name": "chr17:69546800:69546959:+|3pUTR|ENSG00000108984|unk|total|mutant (ssRNA)", "RNA": "GGGAGUUCUACAGUCCGACGAUCUCAACUUCACCGGACUUUUUUUUUUUUUAACUUUUCAAAUGGAAGGUGCAGUUUUCAAUCCGGCCUCUGAAAAUUUACACCGUCAGAUGGAAAAAUGCCAGAGUAAAAUCCCGGAAGAAGCAACAGAGGAUUGAGCAUCA"}, "B8": {"name": "ENSG00000005810:stop:overlap|stop_codon|ENSG00000005810|stop_codon|NA|stop_codon (ssRNA)", "RNA": "GGGAGUUCUACAGUCCGACGAUCCACCCACUGGGGAAGAGUUUGCUCUGGGAUGUGGAGUGUGCAGAAAUGCCCACACUUUUUAGAACACGCAGAUCCUUUGUCUACAGAGAGAAAAAUUGCCUUCAUCCCCCAAGAGGAUGCCAACAGAGGAUUGAGCAUCA"}, "B9": {"name": "chr12:24811411:24811512:-|3pUTR|ENSG00000060982|msi1|FALSE|unique (ssRNA)", "RNA": "GGGAGUUCUACAGUCCGACGAUCGUGAAGAACUCUAUAUUUGUAUGUUGAGAGGGCAUGGAAUAAUUGUAUUUUGCUGGCAAUAGACACAUUCUUUAUUAUUUGCAGAUUCCUCAUCAAAUCUGUAAUUAUGCACAGUUUCUGCAACAGAGGAUUGAGCAUCA"}, "B10": {"name": "chr12:110350735:110350839:+|3pUTR|ENSG00000174437|unk|total|mutant (ssRNA)", "RNA": "GGGAGUUCUACAGUCCGACGAUCUACAGUUUGCUUAUUUAUAAAUUCAUUAAAAACACUACAGGUGUUGAAUGGUUAAAAUGCCGGCCUCCAGUUCAUUUUCAGUUAUUUUCUGAGUGUGCAGACAGCUAUUUCGCACUGUAUCAACAGAGGAUUGAGCAUCA"}, "B11": {"name": "ENSG00000107863:be:win_5401|CDS|ENSG00000107863|bound_else_gene|NA|bound_elsewhere_windowed (ssRNA)", "RNA": "GGGAGUUCUACAGUCCGACGAUCAGACAUACACUAGGAGGGCACAGAGAUGCUACCGAAAUCAGCGUUUUGAAUUUUUGGAAAGUGCAUGAGCAGAGCGGGGAGAGAGAAUCUGAACUUUCAGCUGUAAACCGGUUAAAACCACAACAGAGGAUUGAGCAUCA"}, "B12": {"name": "ENSG00000127995:stop:overlap|stop_codon|ENSG00000127995|stop_codon|NA|stop_codon (ssRNA)", "RNA": "GGGAGUUCUACAGUCCGACGAUCUAGCUGCAUUUUUUUGUGGACUCCUCAUCUUAUCAUCCAUUCAAGAUAAAUCAAAACAUUAGGUUCCAAAAAUUCUAAAAAACCUAAACUCUUCAGGCUACCUUUGUGUGUCUCUAGAAGCAACAGAGGAUUGAGCAUCA"}, "B13": {"name": "chr4:173384700:173388395:-|three_prime_utr|ENSG00000164106|control|control|control (ssRNA)", "RNA": "GGGAGUUCUACAGUCCGACGAUCCUGGAGAACACCAUUCCUGAUUUCCCACAAACUGCACUACAUCAGUAUAACUGCAUUUCUAGUUUCUAUAUAGUGCAAUAGAGCAUAGAUUCUAUAAAUUCUUACUUGUCUAAGACAAGUCAACAGAGGAUUGAGCAUCA"}, "B14": {"name": "chr6:139242528:139243314:-|CDS|ENSG00000164440|control|control|control (ssRNA)", "RNA": "GGGAGUUCUACAGUCCGACGAUCGGUGCCUGCAUGCGAGCCCAGUAGGCAGCCCCCACGAGCAGCAGCAGAGGAGCUGCCAGUAGGGGCCUCAGCUGGGCCCCAGCCGCGCAACGUGGCUGACACCAAUCUGGAAGGCGUCGACAACAGAGGAUUGAGCAUCA"}}, "note": "This is one part of the list."}
{"target": "T1, UNK ZnF1-6 (called full-length) (human, UniProt Q9C0B0 30-357)", "T1 sequence": "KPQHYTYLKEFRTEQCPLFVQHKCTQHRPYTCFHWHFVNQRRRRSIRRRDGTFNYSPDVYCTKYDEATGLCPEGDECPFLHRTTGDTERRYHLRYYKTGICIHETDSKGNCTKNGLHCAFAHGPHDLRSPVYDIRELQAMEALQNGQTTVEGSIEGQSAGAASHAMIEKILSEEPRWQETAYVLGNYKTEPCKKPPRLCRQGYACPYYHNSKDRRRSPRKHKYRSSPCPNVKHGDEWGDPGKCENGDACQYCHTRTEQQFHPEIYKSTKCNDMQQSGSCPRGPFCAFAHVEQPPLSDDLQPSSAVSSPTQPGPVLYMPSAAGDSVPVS", "assay": "nsRBNS (natural sequence RNA bind-n-seq); RBNS binding buffer (assumed for nsRBNS): 25 mM Tris pH 7.5, 150 mM KCl, 3 mM MgCl2, 0.01% Triton X-100, 500 ug/ml BSA, 20 U/ml SUPERase-In, 4 C; UNK is unkempt and MSI1 is Musashi-1; names of the RNAs are library labels; protein concentration not given here; high values mean tight binding", "units": {"binding signal": "enrichment R"}}
{"binder": "B1", "binding signal": 0.893}
{"binder": "B2", "binding signal": 0.532}
{"binder": "B3", "binding signal": 0.782}
{"binder": "B4", "binding signal": 0.61}
{"binder": "B5", "binding signal": 0.393}
{"binder": "B6", "binding signal": 0.551}
{"binder": "B7", "binding signal": 0.522}
{"binder": "B8", "binding signal": 0.686}
{"binder": "B9", "binding signal": 1.44}
{"binder": "B10", "binding signal": 0.642}
{"binder": "B11", "binding signal": 0.693}
{"binder": "B12", "binding signal": 0.828}
{"binder": "B13", "binding signal": 1.05}
{"binder": "B14", "binding signal": 0.478}
